# The supplement of paper PMC12217912
# The other results are listed elsewhere or left out. The full chains were built here from the parent and the listed change. Inactive controls read about 0.05.
# B1: TEV protease; numbered along this chain (parent)
# chain: MGESLFKGPRDYNPISSSICHLTNESDGHTTSLYGIGFGPFIITNKHLFRRNNGTLVVQSLHGVFKVKDTTTLQQHLVDGRDMIIIRMPKDFPPFPQKLKFREPQREERICLVTTNFQTKSMSSMVSDTSCTFPSGDGIFWKHWIQTKDGQCGSPLVSTRDGFIVGIHSASNFTNTNNYFTSVPKNFMELLTNQEAQQWVSGWRLNADSVLWGGHKVFMVKPEEPFQPVKEATQL
# Variants of: B1
# Assay: raw area under fraction-flipped curve 0-4 h after induction (AUC4h, not background-subtracted), DNA-recorder readout of cleavage of the substrate (dimensionless); higher = more cleavage of the substrate by the protease variant
# Settings: temperature: 34 °C; time window: 0-4 h after rhamnose induction
# 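Also: Bxb1 expression induced with 0.2% (w/v) L-rhamnose at OD600 near 0.5, cultures sampled hourly, flipped fraction per protease–substrate barcode pair counted by paired-end Illumina sequencing.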
Variant,area with substrate HNLYFQS,area with substrate MNLYFQS,area with substrate YNLYFQS,area with substrate NNLYFQS,area with substrate SNLYFQS,area with substrate VNLYFQS,area with substrate TNLYFQS,area with substrate WNLYFQS,area with substrate LNLYFQS,area with substrate PNLYFQS
G2N,0.0988,0.0751,0.0409,,,,,,,
G2T,0.0595,,,0.0267,0.0731,0.0792,,,,
E3V,0.0662,0.0716,0.0731,,,,0.0721,0.0662,,
L5H,0.0634,,0.0327,,,0.0701,0.0659,0.0659,0.0636,0.0737
F6N,0.0604,0.0735,,0.0528,,,,0.0686,0.0537,
F6T,0.0651,,,0.0717,,,,0.0763,,
K7Y,0.0707,,0.0543,,,,,,0.0776,
D11T,0.0611,0.083,0.0783,,,,0.0616,0.0579,0.0602,0.0636
G28Y,0.0628,,0.0668,,0.0764,,0.0742,0.0449,0.0704,0.0629
H29G,0.0524,0.106,,,,0.0664,0.0608,0.0453,,
T30D,0.0634,0.0567,0.0504,0.069,0.0583,,,0.05,0.0848,0.0675
G35A,0.0626,,,,,,,,,
G35S,0.0595,,0.0552,,,,0.0268,,,
G35V,0.0548,,,,0.0281,,,0.0414,0.0511,0.0387
F38V,0.0602,0.0466,,,0.0602,,0.0618,0.0654,,
R50W,0.0932,,,,0.0858,0.0885,,,0.0675,
R50Y,0.0659,,0.0664,0.0486,0.0918,,0.0707,0.0369,0.0554,0.0713
V57I,0.0702,0.0521,,,,,0.0751,,0.0542,
V58L,0.0474,0.0778,,,0.0445,,0.0649,,0.0682,
Q59N,0.0589,,0.0559,0.072,,,0.0728,0.0655,0.0897,0.0702
Q59R,0.068,0.0598,,,,0.0533,,0.0609,0.0629,0.0543
L61T,0.0633,,0.0508,0.0743,0.0682,0.0702,,,0.079,0.0544
F65Q,0.061,,0.0513,,,,,0.0565,,0.0603
K66E,0.0374,0.0944,0.0648,,0.0628,,0.0513,0.087,,
K66W,0.0594,,0.0636,0.058,0.0482,,0.076,0.0672,0.0548,0.0709

Variant,area with substrate HNLYFQS,area with substrate MNLYFQS,area with substrate YNLYFQS,area with substrate NNLYFQS,area with substrate SNLYFQS,area with substrate VNLYFQS,area with substrate TNLYFQS,area with substrate WNLYFQS,area with substrate LNLYFQS,area with substrate PNLYFQS
T70F,0.0555,,,,,0.0549,,0.0543,0.0602,0.0607
Q74P,0.0701,,,,0.0519,0.0017,,0.0722,0.0601,0.0686
H76F,0.0475,,0.0605,,,,0.0646,0.0599,0.0626,0.0679
G80L,0.0568,,0.0729,,,0.0527,,,,0.0631
R81V,0.0595,,,,,,0.0613,0.0685,,
I86C,0.0589,,,0.0579,0.0664,0.0518,0.0443,0.0638,,0.0376
R87D,0.0501,,0.0574,,0.0549,0.0627,0.065,0.0564,,
R87Q,0.0638,0.0725,0.0612,,,,,0.0489,,
P89A,0.0429,,,,,,,0.057,,
P89V,0.0544,0.0514,0.0739,,,,0.0384,0.0516,,
K90A,0.0626,,0.0666,,,,,0.0654,0.0649,
P93K,0.0653,,,,,,,,,
P94N,0.0611,,0.0692,,,,0.0697,0.0584,0.0619,0.0758
Q97R,0.0628,,,,,,,,,
L99E,0.0553,,,,,0.0593,,0.0598,0.0662,
K100D,0.0734,,,,0.0738,,0.0612,0.0522,,
F101I,0.0637,0.0448,,0.0565,,,0.0522,,,
R102E,0.0434,0.0397,,0.053,0.0486,,0.0564,0.0577,,
E103I,0.0632,0.0615,0.0327,,,,0.0659,0.0606,0.0696,0.0622
I110R,0.0575,0.0155,0.0514,0.0419,0.0504,0.0577,,0.0417,,
V113Y,0.0707,,0.0527,,,0.0631,0.0462,0.0442,,0.0705
T114N,0.0864,0.0997,,0.0835,0.0678,0.0746,,0.0744,0.0659,
T115K,0.061,,0.0486,,,0.0632,0.0662,0.075,0.0675,0.064
T115Q,0.0665,0.0762,0.0466,0.0507,0.0723,0.0679,0.0678,0.0542,0.0609,0.0839

# Same assay, conditions: temperature: 34 °C; time window: 0-4 h after rhamnose induction
Variant,area with substrate INLYFQS,area with substrate KNLYFQS,area with substrate RNLYFQS,area with substrate QNLYFQS
F6N,0.0653,,,
F6T,0.0564,0.078,0.0724,
K7Y,0.0613,,,
G28Y,0.0608,,,0.0622
H29G,,,0.0524,0.0612
T30D,,0.075,0.0424,0.0779
G35A,,,0.0534,
G35S,,0.0453,,
G35V,0.0501,,,0.061
F38V,0.062,,0.0629,
R50W,,,0.0725,
V58L,,0.0817,,
Q59N,,,,0.0559
Q59R,,0.0697,,
F65Q,0.0683,,,
K66E,0.0685,0.0451,,
K66W,,0.0691,,0.0476
T70F,,0.0639,0.0482,

Variant,area with substrate INLYFQS,area with substrate KNLYFQS,area with substrate RNLYFQS,area with substrate QNLYFQS
Q74P,0.0829,,0.0485,
H76F,,0.0642,,
R81V,,0.0572,,0.0538
I86C,,0.0701,,0.0538
R87D,,0.063,,
P89A,0.0573,0.0629,,0.0528
K90A,,0.0797,0.0577,
P94N,,0.0599,,
Q97R,,0.0588,,
L99E,0.066,,,
K100D,,0.067,,
F101I,0.0512,,0.0606,
R102E,0.0575,,,
E103I,0.0644,0.0418,,
I110R,0.0437,0.0546,,
V113Y,0.0762,0.0431,,0.0679
T115K,,,0.0672,
T115Q,0.0483,0.0603,,
